Source: PubChem BioAssay AID2675 (National Center for Advancing Translational Sciences (NCATS), 2010)
Screen size: about 280,000 compounds; about 100 (0.036%) were called active. Inconclusive results, whose numbers are uncertain, are shown with a selection of clear calls. Calls follow the shape of the dose curve; as a rule, active = well fitted inhibition curve with a large enough effect in the signal ratio, with a control signal flat (not every such curve was filed as active); inconclusive = small, poorly fitted or top-dose-only effect, or effect the other way, or a change in a side signal; inactive = no such curve, though single readings can be large or run the other way; the % refers to the signal ratio. Potencies beside an inconclusive call are fits to weak or partial responses and may not hold up. A note “side channel” means that the fit belongs to a control or component signal, not to the main read-out.

Target: Muscleblind-like protein 1 (Homo sapiens) (UniProt Q9NR56)
UniProt Q9NR56, sequence (Q9NR56 whole entry, looked up): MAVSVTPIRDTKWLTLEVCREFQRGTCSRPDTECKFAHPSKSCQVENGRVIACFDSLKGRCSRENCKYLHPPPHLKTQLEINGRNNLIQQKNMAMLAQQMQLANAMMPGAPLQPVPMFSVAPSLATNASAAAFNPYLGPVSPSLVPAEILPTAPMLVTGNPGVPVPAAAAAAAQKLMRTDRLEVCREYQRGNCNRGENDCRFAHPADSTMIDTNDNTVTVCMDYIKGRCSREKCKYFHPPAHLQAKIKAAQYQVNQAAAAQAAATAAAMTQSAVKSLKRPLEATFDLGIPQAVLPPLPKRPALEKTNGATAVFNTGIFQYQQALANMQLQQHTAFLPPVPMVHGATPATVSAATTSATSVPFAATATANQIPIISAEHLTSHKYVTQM
Assay: qHTS Assay for Inhibitors of MBNL1-poly(CUG) RNA binding
Details: TR-FRET MBNL1-His/biotin-(CUG)12 binding, 665/545 ratio; activity change, negative = inhibition: at 57.5 µM (top of the series)
In short: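 MBNL1-His + Biotin-(CUG)12, cpd titration 92 nM–58 uM; Tb anti-His Ab 0.055 ng/ul, SA-XL665 5 nM (final); 60 min RT; ratiometric 665/545 nm, Ex 340 nm; normalized to buffer and full-complex controls.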
% is scaled to controls: 0 for no effect and ±100 for the full control effect; potency is read from the fitted curve at half-maximal effect; tags tell the direction and shape of the fitted curve or compound fluorescence and quenching.

Compound | Potency | activity change, negative = inhibition
CCn1cc(CN2CCCC(CNC(=O)COc3ccccc3OC)C2)c(C)n1 (stereo unspecified) | inconclusive: 126 µM [inhibitor, partial curve] | 
NC(N)=N/N=C/c1cc([N+](=O)[O-])ccc1O | inconclusive: 25.1 µM [quencher, side channel, partial curve] | 
CCN(CC)c1ccc2c(C)c(CN3CCOCC3)c(=O)oc2c1 | inconclusive: 12.6 µM [quencher, side channel, partial curve] | 
COc1ccc(CCN2C(=O)CSC2c2cccc([N+](=O)[O-])c2)cc1OC (stereo unspecified) | inconclusive: 14.1 µM [quencher, side channel, partial curve] | 
NS(=O)(=O)c1cccc(NC(=O)COC(=O)/C=C/c2ccco2)c1 | inconclusive: 14.1 µM [quencher, side channel, partial curve] | 
COc1ccc(C(=O)Nn2cc3c(c2-c2ccccc2)c(=O)n(C)c(=O)n3C)cc1 | inconclusive: 3.98 µM [fluorescent, side channel, single point] | 
O=C(Nc1cccnc1)c1cc2cc(Br)ccc2oc1=O | inconclusive: 2.24 µM [quencher, side channel, partial curve, poor fit] | 
Cc1c(NC2=CC(=O)CC(C)(C)C2)ccc([N+](=O)[O-])c1C | inconclusive: 35.5 µM [quencher, side channel, single point] | 
CN(C)/C=C1/C(=O)N(c2ccc([N+](=O)[O-])cc2)N=C1c1ccccc1 | inconclusive: 35.5 µM [quencher, side channel, partial curve] | 
NC(CC(=O)O)c1ccc(F)cc1 (stereo unspecified) | inconclusive: 31.6 µM [fluorescent, side channel, single point] | 
Cc1ccc2nsnc2c1S(=O)(=O)Nc1ccccc1C(=O)O | inconclusive: 25.1 µM [quencher, side channel, single point] | 
COc1cc(OC)nc(NC(=S)NC(=O)c2ccccc2)n1 | inconclusive: 3.16 µM [quencher, side channel, single point] | 
CCOc1ccc(CCNC(=O)COC(=O)/C=C/c2ccc(C)o2)cc1OCC | inconclusive: 17.8 µM [quencher, side channel, single point] | 
O=C(Nc1ccccc1C(=O)Nc1ccccn1)c1cccc([N+](=O)[O-])c1 | inconclusive: 5.62 µM [quencher, side channel, full curve] | 
O=[N+]([O-])c1cc(Br)cc(/C=N/n2cnnc2)c1O | inconclusive: 22.4 µM [quencher, side channel, single point] | 
COc1ccc(CCn2c(C)cc(C(=O)CSc3nc(N)cc(=O)[nH]3)c2C)cc1 | inactive | 
COc1ccc(OC)c(/C=N/NC(=O)CCc2n[nH]c(=O)[nH]c2=O)c1 | inconclusive: 31.6 µM [quencher, side channel, single point] | 
Cc1cc(C)c2nc(NC(=O)c3ccco3)sc2c1 | inactive | 
CCOCCCNC(=O)c1cn(CC(C)C)c(=O)c2cc(OC)c(OC)cc12 | inconclusive: 39.8 µM [quencher, side channel, single point] | 
O=C(/C=C/c1ccco1)Nc1ccc(C(=O)N2CCOCC2)cc1 | inconclusive: 39.8 µM [quencher, side channel, single point] | 
CCOC(=O)C1=C(C)N=c2s/c(=C/c3ccco3)c(=O)n2C1c1cccc(OC)c1 (stereo unspecified) | inconclusive: 12.6 µM [quencher, side channel, partial curve] | 

Compound | Potency | activity change, negative = inhibition
N#Cc1c(SCC(=O)Nc2nncs2)sc2c(O)cc(=O)[nH]c12 | inconclusive: 28.2 µM [quencher, side channel, partial curve] | 
CCCCN(C)C(=O)c1cc2cc3ccc(OC)cc3nc2o1 | inconclusive: 12.6 µM [quencher, partial curve] | 
Cn1c(=O)c2c(ncn2CCO)n(C)c1=O | inactive | 
COc1ccc2nc(N=Nc3ccc(O)c4ccccc34)sc2c1 | inactive | 
Cc1cccc([C@@H]2[C@@H]3C(=O)N(Cc4ccccc4)C(=O)[C@@H]3[C@]3(Cc4ccc(Cl)cc4)C(=O)N(c4ccccc4)C(=O)N23)c1 | inconclusive: 7.08 µM [fluorescent, side channel, single point] | 
Cc1c(NS(=O)(=O)c2cccs2)cccc1-c1nc2cccnc2s1 | inactive | 
Cc1cc(C)cc(OCC(=O)NN2C(=O)c3ccccc3C2=O)c1 | inactive | 
CCOC(=O)COc1ccccc1/C=C\[N+](=O)[O-] | inactive | 
O=C(Nc1ccc(F)cc1)c1ccc2nsnc2c1 | inconclusive: 14.1 µM [quencher, side channel, partial curve] | 
CC(=O)N1c2c(cc(Br)cc2S(=O)(=O)NCc2ccc3c(c2)OCO3)CC1C (stereo unspecified) | inactive | 
COc1ccc(C(c2nnnn2Cc2cccs2)N2CCN(c3ccccc3F)CC2)cc1OC (stereo unspecified) | inactive | 
CCc1cc(-c2nc(N)ncc2-c2csc(C)n2)c(O)cc1OC | inactive | 
O=[N+]([O-])c1cccc(-c2nc(NCc3ccccc3)c3ccccc3n2)c1 |  | inactive: 5.98% [at 11.5 µM]
O=C(NCc1cnn(-c2ccccc2)c1)C1CCC(=O)N(C2CC2)C1 (stereo unspecified) | inactive | 
CCCC(=O)Nc1ccc(Cc2ccc(NC(=O)CCC)c(C(=O)O)c2)cc1C(=O)O | inconclusive: 31.6 µM [fluorescent, side channel, single point] | 
Oc1ccc(/C=N/Nc2cccc3cccnc23)c(O)c1 | inconclusive: 20 µM [quencher, side channel, partial curve] | 
CC(C)(C(=O)O)c1ccc([C@H](O)CCCN2CCC(C(O)(c3ccccc3)c3ccccc3)CC2)cc1 | inactive | 
CC(=O)N1CCC(N(CCCOC(C)C)S(=O)(=O)c2ccc([N+](=O)[O-])cc2)CC1 | inconclusive: 15.8 µM [quencher, side channel, partial curve] | 
COC(=O)[C@H](Cc1ccccc1)NC(=O)[C@@]1(C)C[C@@H]1[C@@H](NC(=O)OCc1ccccc1)c1ccccc1 | inactive | 
O=S(=O)(Nc1cc(S(=O)(=O)N2CCOCC2)ccc1N1CCOCC1)c1ccc2c(c1)OCCO2 | inactive | 
COCCN(CC(=O)NCC1CCCO1)C(=O)CCC(=O)Nc1cc(C)ccn1 (stereo unspecified) | inconclusive: 79.4 µM [inhibitor, single point] | 

Compound | Potency | activity change, negative = inhibition
O=C(c1ccc(-c2nnc(Nc3ccccc3)c3ccccc23)cc1)N1C[C@H]2C[C@H](C1)c1cccc(=O)n1C2 | inconclusive: 17.8 µM [quencher, side channel, partial curve] | 
COc1ccc(/C=N/n2cnnc2SCCO)cc1OC | inconclusive: 10 µM [quencher, side channel, partial curve] | 
CCc1nccn1C(=O)c1cnn2c(C(F)F)cc(-c3ccc(C)cc3)nc12 | inconclusive: 14.1 µM [quencher, side channel, single point] | 
Cc1cc(C(=O)COc2ccccc2C(N)=O)c(C)n1CC1CCCO1 (stereo unspecified) | inactive | 
CC1(c2nnc(Cc3ccccc3)o2)CC(c2ccc([N+](=O)[O-])cc2)=NO1 (stereo unspecified) | inconclusive: 17.8 µM [quencher, side channel, partial curve] | 
CN(C)c1ccc(/C=C2\CCCc3c2nc2ccccc2c3C(=O)O)cc1 | inconclusive: 25.1 µM [quencher, side channel, partial curve] | 
O=C(NC(=S)Nc1ccccc1N1CCCCC1)c1ccco1 | inconclusive: 39.8 µM [fluorescent, side channel, partial curve, poor fit] | 
CCCCNC(=S)Nc1ccc([N+](=O)[O-])cc1 | inconclusive: 39.8 µM [quencher, side channel, partial curve] | 
Cc1ccccc1NS(=O)(=O)c1ccc(-c2ccc(=O)[nH]n2)o1 | inconclusive: 31.6 µM [activator, single point] | 
Cc1ccc(CSc2nnc(SCC(=O)N/N=C/c3c[nH]c4ccccc34)s2)cc1 | inconclusive: 3.16 µM [inhibitor, full curve, poor fit] | 
COc1cc(NC(=S)Nc2ccc(Br)cc2Cl)c(OC)cc1Cl | inconclusive: 0.1 µM [fluorescent, side channel, full curve, poor fit] | 
O=C(Nc1cccc(F)c1)C1CCN(S(=O)(=O)c2cccc3nonc23)CC1 | inconclusive: 15.8 µM [quencher, side channel, partial curve] | 
Cc1cc(Sc2nccn2C)ncc1[N+](=O)[O-] | inconclusive: 31.6 µM [quencher, side channel, single point] | 
CCOC(=O)c1ccc(NC(=O)Nc2cc(C)on2)cc1 | inconclusive: 126 µM [inhibitor, single point] | 
Cc1cc(C(=O)OCC(=O)N(C)c2ccccc2)ccc1[N+](=O)[O-] | inconclusive: 14.1 µM [quencher, side channel, partial curve] | 
COc1ccc(C(=O)CCNc2ccc(F)cc2)cc1 | inactive | 
Cc1ccc2nc(Cl)c3nnnn3c2c1 | inconclusive: 2.82 µM [quencher, side channel, partial curve, poor fit] | 
O=C(Nc1nnc(-c2cccs2)o1)c1ccc(S(=O)(=O)N2CCOCC2)cc1 | inactive | 
CCN(CCCNC(=O)C1CCN(S(=O)(=O)c2cccc3nonc23)CC1)Cc1ccccc1 | inconclusive: 14.1 µM [quencher, partial curve, poor fit] | 
